Results published in PubChem BioAssay AID488969 (Vanderbilt High Throughput Screening Facility, 2010).
The full ranking holds about 110,000 compounds; the median of “z-score” is about -0.1, and the highest 2% start at about 2. The list shows a part of the results.

The compounds below were run against Metabotropic glutamate receptor 8 (Rattus norvegicus) (UniProt P70579) (assay: mGluR8 Gi/Go-coupled signaling modulation – cell-based, rat, thallium flux, HTS, primary screen (AID 488969)). Conditions: HEK293 rat mGluR8, GIRK (G protein-gated inwardly rectifying potassium channel) thallium flux, FluoZin2; at 10 µM; stronger effect = higher value; submaximal glutamate (EC20) added with thallium.
Chain of UniProt P70579 (P70579 whole entry, looked up): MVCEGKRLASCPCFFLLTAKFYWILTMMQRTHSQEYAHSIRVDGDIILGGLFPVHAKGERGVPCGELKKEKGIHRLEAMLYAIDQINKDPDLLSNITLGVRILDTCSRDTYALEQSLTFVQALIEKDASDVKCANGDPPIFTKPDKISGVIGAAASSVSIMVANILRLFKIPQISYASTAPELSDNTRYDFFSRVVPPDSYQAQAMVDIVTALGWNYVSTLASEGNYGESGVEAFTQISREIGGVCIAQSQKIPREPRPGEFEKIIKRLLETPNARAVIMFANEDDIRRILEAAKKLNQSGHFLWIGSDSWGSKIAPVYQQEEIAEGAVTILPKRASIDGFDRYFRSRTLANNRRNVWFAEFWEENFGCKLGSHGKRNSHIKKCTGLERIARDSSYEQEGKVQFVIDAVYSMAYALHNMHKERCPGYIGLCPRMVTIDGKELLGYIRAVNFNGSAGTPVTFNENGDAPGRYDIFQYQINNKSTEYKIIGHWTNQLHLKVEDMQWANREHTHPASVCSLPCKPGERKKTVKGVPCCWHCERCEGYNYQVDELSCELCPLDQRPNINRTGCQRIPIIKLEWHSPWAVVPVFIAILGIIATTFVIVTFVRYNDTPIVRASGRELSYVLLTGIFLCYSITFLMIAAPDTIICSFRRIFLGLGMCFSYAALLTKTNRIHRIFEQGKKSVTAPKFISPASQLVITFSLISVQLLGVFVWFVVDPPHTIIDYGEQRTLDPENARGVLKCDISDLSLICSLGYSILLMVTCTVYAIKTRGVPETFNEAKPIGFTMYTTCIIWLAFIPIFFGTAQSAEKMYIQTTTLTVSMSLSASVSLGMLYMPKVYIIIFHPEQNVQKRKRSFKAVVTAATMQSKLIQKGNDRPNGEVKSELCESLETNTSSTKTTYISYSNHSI
`CCOC(=O)Cn1nnc(-c2ccc(S(C)(=O)=O)cc2)n1` showed a z-score of -0.322.
With `CCOc1ccc(NC(=O)CSc2nc3ccccc3c(=O)n2Cc2cccs2)cc1` the z-score was -0.0117.
With `O=C(NCCCN1CCOCC1)C(Sc1ccccc1)c1ccccc1` (centres undefined) the z-score was -0.146.
With `CCCCn1nnnc1NCc1ccc(OC)c(OC)c1` the z-score was -0.0213.
For `Cn1c(C(=O)N2CCN(c3ncccn3)CC2)cc2c(=O)n(C)c3ccccc3c21`, the z-score was -0.941.
With `CC1CCC(NS(=O)(=O)c2ccc3c(c2)n(C)c(=O)c(=O)n3C)CC1` (centres undefined) the z-score was 0.182.
In the case of `CC(=O)Nc1nc2cc3c(cc2s1)OCO3`, the z-score is reported as 0.296.
`NC(=O)c1c(-c2ccc(Cl)cc2Cl)csc1NC(=O)Cc1ccccc1` was tested, and the z-score was -0.416.
For `CN(c1ccccc1)S(=O)(=O)c1cccc(NC(=O)CSc2nncn2C)c1`, the z-score was -0.203.
`CCCc1nnc(NC(=O)CCCN2C(=O)c3ccccc3C2=O)s1` was tested, and the z-score was 0.234.
In the case of `Fc1ccc(-c2nc(-c3cccs3)[nH]c2-c2ccc(F)cc2)cc1`, the z-score is reported as -0.25.
`Cc1cc(NC(=O)COC(=O)c2ccc(NS(=O)(=O)c3ccc(C)c(C)c3)cc2)no1` gave a z-score of 0.115.
`COc1ccc(/C(N)=N/OC(=O)Cc2ccc(OC)c(OC)c2)cc1` was tested, and the z-score was -0.0928.
`COc1cc(NC(=O)COC(=O)/C=C/c2ccccc2Cl)cc(OC)c1` gave a z-score of -0.092.
For `O=C(Cc1cccc2ccccc12)NCCC1=CCCCC1`, the z-score was 0.134.
`O=C(c1ccccc1)c1ccc(N2CCNCC2)cc1` was tested, and the z-score was 1.29.
With `CCOc1ccc(NC2c3ccccc3C(=O)N2Cc2ccc3c(c2)OCO3)cc1` (centres undefined) the z-score was -0.187.
Work on `Cn1cnnc1Sc1nc2c(c(=O)n(C)c(=O)n2C)n1C` yielded a z-score of 0.104.
For `CSC(=NC(C)c1ccccc1)NS(=O)(=O)c1cccs1` (centres undefined), the z-score was 0.148.
`O=C(Nc1ccc2oc(-c3cccnc3)nc2c1)c1ccco1` was tested, and the z-score was -0.851.
In the case of `Cc1ccc(S(=O)(=O)N(C)c2ccc(OCC(=O)OCc3c(C)noc3C)cc2)cc1`, the z-score is reported as -0.694.
For `CCOC(=O)Cc1csc(NS(=O)(=O)c2ccccc2)n1`, the z-score was -0.205.
`COC(=O)c1c(NC(=O)CSc2nnnn2C)sc(C)c1C` was tested, and the z-score was 0.0868.
With `Cc1ccc(CC2CC(=O)N(c3ccc(Cl)cn3)C2=O)cc1` (centres undefined) the z-score was 0.104.
In the case of `CCCCC(=O)Nc1ccc(C(=O)N2CCN(c3ccccc3OC)CC2)cc1`, the z-score is reported as -2.33.
`CCCn1c(SCc2nc(-c3cccs3)no2)nnc1-c1ccncc1` showed a z-score of 0.141.
In the case of `COc1ccc(NC2=C(Cl)C(=O)N(CCc3ccccc3)C2=O)c(OC)c1`, the z-score is reported as -0.154.
With `O=C(NCC(c1cccnc1)N1CCOCC1)c1ccco1` (centres undefined) the z-score was 0.975.
`CSc1nnc(-c2ccccc2N=Cc2c(C)[nH]n(-c3ccccc3)c2=O)c(=O)[nH]1` was tested, and the z-score was -0.343.
In the case of `Cc1nnc(SC(C)C(=O)N2CCc3ccccc32)s1` (centres undefined), the z-score is reported as -0.392.
`CCCCOP(=O)(c1ccc(N(C)C)cc1)C(O)c1cccnc1` (centres undefined) was tested, and the z-score was 0.0028.
Work on `CCN(CC)S(=O)(=O)c1cccc(NC(=O)c2cc(=O)[nH]c3ccccc23)c1` yielded a z-score of -0.103.
`CCn1nnc(NC(=O)c2cccc(-c3cc4ccccc4oc3=O)c2)n1` gave a z-score of -0.611.
`O=S(=O)(c1ccc(Br)cc1)N1CCn2c(nc3ccccc32)C1` was tested, and the z-score was 0.381.
Compound `O=C1c2ccccc2C(=O)N1CC1c2ccccc2CCN1S(=O)(=O)c1ccccc1` (centres undefined) has a z-score of -0.152.
`COc1ccc(NC(=O)c2oc3ccccc3c2C)c(OC)c1` was tested, and the z-score was 0.0133.
In the case of `COc1cc2cc(C(c3nnnn3C(C)(C)C)N3CCC(C)CC3)c(=O)[nH]c2cc1OC` (centres undefined), the z-score is reported as -0.0379.
Work on `COCCCNC(=O)CCNS(=O)(=O)c1ccc(C)cc1` yielded a z-score of 0.264.
`COC(=O)c1ccc(Oc2nc(Nc3ccccc3)nc(N(C)C)n2)cc1` was tested, and the z-score was -0.223.
Work on `O=C1Nc2ccc(S(=O)(=O)N3CCCC3C(=O)O)c3cccc1c23` (centres undefined) yielded a z-score of -0.291.
`CC(=O)c1ccc(N(C)C)c2c(N(C)C)cccc12` showed a z-score of 1.27.
With `COc1ccc(Cl)cc1NC(=O)COC(=O)/C=C/c1c(C)nn(C2CCS(=O)(=O)C2)c1Cl` (centres undefined) the z-score was -0.324.
Work on `Cc1ccccc1OCCNC(=O)/C=C/c1ccc([N+](=O)[O-])cc1` yielded a z-score of -0.354.
In the case of `Cc1cc(C)n(C2CCCCC2OC(=O)c2ccccc2F)n1` (centres undefined), the z-score is reported as -0.148.
With `O=C(CC1SC(=Nc2ccccc2)N(CCc2ccccn2)C1=O)Nc1ccc(F)cc1` (centres undefined) the z-score was -0.0441.
For `COC(=O)c1ccc(NS(=O)(=O)c2ccc3c(c2)oc(=O)n3C)cc1`, the z-score was -0.233.
`CCc1ccc(NC(=O)CSc2nnc(CC)c(CC)n2)cc1` showed a z-score of -0.074.
Work on `COC(=O)C1=C(C)N(CCc2ccc(OC)c(OC)c2)C(=O)/C1=C\N(C)C` yielded a z-score of -0.171.
Work on `O=C(O)CN1C(=O)SC(Nc2ccccc2C(=O)O)C1=O` (centres undefined) yielded a z-score of -0.0946.
`CCOc1ccccc1NC(=S)NC(=O)CCCOc1ccc(Cl)cc1Cl` showed a z-score of -0.0571.
In the case of `C=C(C)c1cccc(C(C)(C)NC(=O)NCc2ccc(OC)cc2)c1`, the z-score is reported as -0.252.
For `CCCCN1C2CCCC1CC(NC(=O)C1CCCCC1)C2` (centres undefined), the z-score was -0.0601.
For `COc1ccc(-n2c(SCC(=O)N3CCOCC3)nc(O)c(Cc3ccccc3)c2=O)cc1`, the z-score was -0.108.
With `O=[N+]([O-])c1ccc(Nc2ccccc2)nc1` the z-score was -0.105.
For `C=CCn1c(SCc2csc(C)n2)nc2sc3c(c2c1=O)CCCC3`, the z-score was 0.143.
Compound `Cc1nn(CCOc2ccccc2)c(=O)n1-c1cccc(F)c1` has a z-score of -0.0112.
Work on `CCN(CC)S(=O)(=O)c1cccc(-c2nnc(SCC(=O)NC3CCCCCCC3)n2N)c1` yielded a z-score of -0.924.
Compound `COc1cc(/C=C/c2ccc3cccc(OC)c3n2)c(OC(C)=O)c([N+](=O)[O-])c1` has a z-score of -0.561.
Work on `CCn1c(SCC(=O)Nc2ccc(N3CCOCC3)cc2)nnc1-c1ccc(OC)cc1` yielded a z-score of -0.137.
For `Cc1c(Cc2ccccc2)sc(/N=C/c2ccc3ccccc3c2)c1C(N)=O`, the z-score was 0.0447.
`COc1ccc(Cl)cc1C(=O)CSc1nnnn1C1CCCCC1` showed a z-score of -0.333.
Compound `CSc1nc2nc(C)cc(-c3ccccc3)n2n1` has a z-score of 0.168.
Compound `Cc1[nH]nc(N=CC2=C(O)CC(c3ccco3)CC2=O)c1-c1ccc(Cl)cc1` (centres undefined) has a z-score of -0.117.
`O=C(N/N=C/C1CC2CCC1C2)c1ccc2c(c1)OCO2` (centres undefined) was tested, and the z-score was -0.285.
With `CC(C)(C)n1nc2c(c1NC(=O)COc1ccc(Cl)cc1)CSC2` the z-score was -0.126.
`CC(C)(C)c1cc(C(=O)NCC(=O)OCC(=O)c2cccc([N+](=O)[O-])c2)cc(C(C)(C)C)c1` gave a z-score of -0.129.
`CCNC(=O)NC(=O)C(C)Sc1nc2ccccc2n1CC(C)C` (centres undefined) showed a z-score of 0.122.
`CC(C)OC(=O)C1=C(N)N2C(=O)CSC2=C(C(=O)OC(C)C)C1` showed a z-score of -0.11.
`CN(CC(=O)N1CC=C(c2ccccc2)CC1)S(=O)(=O)c1cnc[nH]1` gave a z-score of 0.164.
